Source: the RNAGym collection of RNA variant scans (doi:10.1093/nar/gkz1192)
The source gives no read counts; variants with many changes may rest on few reads.

B1: CPEB3 Ribozyme (parent)
chain: UAACAGGGGGCCACAGCAGAAGCGUUCACGUCGCAGCCCCUGUCAGAUUCUGGUGAAUCUGCGAAUUCUGCUGUAUAUCUC

Variants of: B1
Assay: self-cleavage, relative activity (ratio to wild type); higher = more cleavage; in vitro, sequencing
Outline: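 Relative activity was defined as the cleaved/total read fraction for a variant divided by the same fraction for the unmutated ribozyme. CPEB3 self-cleaving ribozyme libraries were made by rounds of error-prone PCR, barcoded, and transcribed in vitro with T7 RNA polymerase for 5 hours at 37°C, and cleavage ran through transcription plus a 15 min DNase I step before EDTA. Illumina sequencing of template-switched reverse transcripts gave the reads, and DNA sequencing mapped the barcodes. Averages come from three batches, using variants with at least 5 reads.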
With A5U C38A A47G U49C G55C U66C the self-cleavage was 0.11.
Work on A5U C38U U51C U67C yielded a self-cleavage of 0.22.
Variant A5U C39G U41A U43G U72A has a self-cleavage of 0.08.
With A5U C40U A64G U66C the self-cleavage was 0.14.
A5U C40U G70A C71G gave a self-cleavage of 0.2.
With A5U C44G A45G U58A the self-cleavage was 0.06.
With A5U C44U A56G U58C the self-cleavage was 0.14.
In the case of A5U C44U U72A U74A, the self-cleavage is reported as 0.37.
A5U C50A U54A U78C showed a self-cleavage of 0.93.
Variant A5U C50U A56U U80G has a self-cleavage of 0.81.
A5U C62A A75U gave a self-cleavage of 0.23.
A5U C62G U72C showed a self-cleavage of 0.33.
For A5U G6A A20U U26C U60C, the self-cleavage was 0.16.
A5U G6A G16A U43G U80A showed a self-cleavage of 0.3.
A5U G6A U72A U80C gave a self-cleavage of 0.6.
With A5U G7A A20U A57G U60A the self-cleavage was 0.21.
In the case of A5U G7A C23G U41A U67C, the self-cleavage is reported as 0.1.
In the case of A5U G7A U31C A45G, the self-cleavage is reported as 0.07.
Work on A5U G7C A15G G70C yielded a self-cleavage of 0.31.
For A5U G7U A47U A56G U78C, the self-cleavage was 0.08.
Work on A5U G7U U48A G52A yielded a self-cleavage of 0.25.
With A5U G7U U69C U72C the self-cleavage was 0.14.
Work on A5U G8A A56G yielded a self-cleavage of 0.39.
A5U G8A C14U U78C gave a self-cleavage of 0.19.
With A5U G8A C29U A45G U58C U72A U80C the self-cleavage was 0.05.
Work on A5U G8U A13C U25A U54A U60A yielded a self-cleavage of 0.05.
A5U G8U G22C A47G U69A gave a self-cleavage of 0.04.
With A5U G9A A18G U43C U66C U67A U80A the self-cleavage was 0.05.
With A5U G9A C17U A20U A64G the self-cleavage was 0.07.
A5U G9C C40U U51C A56G A64G gave a self-cleavage of 0.03.
A5U G9C G30A U41A gave a self-cleavage of 0.19.
A5U G9C U49C U72C gave a self-cleavage of 0.07.
With A5U G9U A13C C68U the self-cleavage was 0.56.
Work on A5U G9U A28G A35U C38U U60A yielded a self-cleavage of 0.04.
A5U G9U A35C gave a self-cleavage of 0.07.
Work on A5U G9U U49A U67C yielded a self-cleavage of 0.06.
With A5U G9U U54A the self-cleavage was 0.13.
A5U G9U U74C showed a self-cleavage of 0.13.
A5U G10A C23G C62G gave a self-cleavage of 0.05.
In the case of A5U G16A U54G U76G, the self-cleavage is reported as 0.35.
For A5U G16C U25A A35U U49C, the self-cleavage was 0.11.
Work on A5U G19A U43A A57G yielded a self-cleavage of 0.35.
Work on A5U G19C U25C U31C A47U U72C yielded a self-cleavage of 0.05.
In the case of A5U G22A U43A A47U U67A U72C, the self-cleavage is reported as 0.04.
Variant A5U G22U U26A U60A U67A has a self-cleavage of 0.18.
In the case of A5U G24A U54C U80A, the self-cleavage is reported as 0.08.
With A5U G30A G33A U41A U48C A56G the self-cleavage was 0.15.
A5U G33A A47G U51C U66C U80C gave a self-cleavage of 0.13.
Variant A5U G33A U49C has a self-cleavage of 0.48.
For A5U G36A U80C, the self-cleavage was 0.47.
A5U G53U A56G U74C showed a self-cleavage of 1.23.
With A5U U25A A64G U78C the self-cleavage was 0.13.
A5U U25C A35G U41A U51A A64U gave a self-cleavage of 0.07.
For A5U U25C A35U, the self-cleavage was 0.41.
A5U U25C A64G U67C gave a self-cleavage of 0.24.
For A5U U25C A77G U78C, the self-cleavage was 0.08.
A5U U25C C29U showed a self-cleavage of 0.41.
For A5U U25C U31A A57G, the self-cleavage was 0.14.
A5U U25C U54C gave a self-cleavage of 0.15.
Variant A5U U25C U60C U66C has a self-cleavage of 0.14.
A5U U25C U78A gave a self-cleavage of 0.22.
In the case of A5U U26A A47G U48C G70A, the self-cleavage is reported as 0.09.
Variant A5U U26A G55U A64C has a self-cleavage of 0.25.
For A5U U26C A28U, the self-cleavage was 0.77.
Variant A5U U26C A45G G46A U78A has a self-cleavage of 0.07.
For A5U U26C A47G U54C, the self-cleavage was 0.63.
In the case of A5U U26C A64U, the self-cleavage is reported as 0.34.
A5U U26C A64U U78C gave a self-cleavage of 0.1.
A5U U26C C29U A65G U72A gave a self-cleavage of 0.17.
Work on A5U U26C C40G U58A A64G U66C A77G yielded a self-cleavage of 0.21.
For A5U U26C G61C A75U, the self-cleavage was 0.46.
With A5U U26C U43A U49C U72C U74C A77G the self-cleavage was 0.18.
With A5U U26C U60A the self-cleavage was 0.59.
In the case of A5U U26C U69C, the self-cleavage is reported as 0.2.
Work on A5U U31A U60C U66A yielded a self-cleavage of 0.26.
With A5U U31A U69A the self-cleavage was 0.26.
For A5U U31C A45G, the self-cleavage was 0.63.
A5U U31C U41C A57G gave a self-cleavage of 0.78.
Work on A5U U31C U51A A56G yielded a self-cleavage of 0.3.
With A5U U41A A47G the self-cleavage was 0.25.
With A5U U41A U48C C50U U72C the self-cleavage was 0.11.
For A5U U41A U58C, the self-cleavage was 0.28.
In the case of A5U U41G A57G U80C, the self-cleavage is reported as 0.46.
